Two molecules from PMC4207660, “Identification and Characterization of Hundreds of Potent and Selective Inhibitors of Trypanosoma brucei Growth from a Kinase-Targeted Library Screening Campaign” (PLoS Neglected Tropical Diseases, 2014) can be followed below.

Series [1] concerns T. brucei brucei parasites (Lister 427 strain). Put plainly: Dose response growth inhibition assay (resazurin, 72 h). The format is cell-based. The conditions noted are these: Trypanosoma brucei; T. b. brucei growth inhibition; read-out: Tbb pEC50 (converted). Here is the method:
Greiner sterile black clear bottom 384-well assay plates were pre-dispensing with 200 nL of compound in each well, from master plates at 1 mM (100% DMSO) containing selection from the GSK compound collection. Controls of 0% response (control 1, 200 nL of 100%DMSO) and 100% response (control 2, 200 nL of 1 mM pentamidine) were included in each assay plate in columns 6 and 18, respectively. Plates containing 200 nL of 100% DMSO were included randomly in the assay, to assess quality through all process. […] After this period, 10 µL of 200 µM resazurin solution in prewarmed HMI-9 were added to each well, and plates were allowed to incubate 2 hours more prior fluorescence reading in a Wallac EnVision Multilabel Plate Reader (Perkin-Elmer). Raw fluorescent data from the Envision plate reader were uploaded into GSK HTS database (ActivityBase). Activity of each well was normalized as a percentage of inhibition per-plate basis using the following equation: [drawing 1]
For dose-response experiments, serial compound dilutions of selected hits from the primary campaign were plotted against compound concentration. Dose response master plates were prepared by 3-fold dilutions (starting with 10 mM DMSO stock solutions), providing 11 concentrations. From these master plates, 200 nL per well was stamped in final assay plates, including the same controls describe in the primary single shot assay. […]
(Alamar Blue is a resazurin reagent that responds to reducing activity.)

The nature of series [2]: CLND kinetic solubility assay. The conditions noted are these: phosphate buffered saline, pH 7.4, aqueous buffer, kinetic from dmso stock; Measured; read-out: Aq Sol. The format is physicochemical. The protocol: 5 µL of 10 mM DMSO stock solution was diluted to 100 µL with pH 7.4 phosphate buffered saline, equilibrated for 1 hour at room temperature, filtered through Millipore MultiscreenHTS-PCF filter plates (MSSL BPC). The filtrate was quantified by suitably calibrated flow injection Chemi-Luminescent Nitrogen Detection.

Series [3] can be described thus: ChromlogD assay. Here is the method:
The Chromatographic Hydrophobicity Index (CHI)[22] values were measured using reversed phase HPLC column (Luna C18 (2), Phenomenex, UK) with a fast acetonitrile gradient at starting mobile phase of pH = 7.4. CHI values are derived directly from the gradient retention times by using a calibration line obtained for standard compounds. The CHI value approximates to the volume % organic concentration when the compound elutes. […] The average error of the assay is ±3 CHI unit or ±0.25 ChromlogD.

Series [4] has as its target T1, Human Serum Albumin (HSA) (Homo sapiens, UniProt P02768).
T1 construct: purchased Chiral Technologies, France
Put plainly: Protein binding assay (HPLC stationary phase), HSA. The settings on record: Measured. The format is in vitro ADME. Here is the method:
Chemically bonded Human Serum Albumin (HSA) and Alpha-1-acidglycoprotein HPLC stationary phases (Chiral Technologies, France) were used for measuring compounds' binding to plasma proteins, applying linear gradient elution up to 30% iso-propanol. The run time was 6 min, including the re-equilibration of the stationary phases with the 50 mM pH7.4 ammonium acetate buffer. The obtained gradient retention times were standardised using a calibration set of mixtures as described in the references. The average standard error of the assay depends on the binding strength and kinetics of the compounds.

≈ marks a conversion by molar mass, not a printed value.

In the case of `COc1cccc(Cc2nnc(-c3ncc4cccnc4c3O)[nH]2)c1` [NEU-0001189], the EC50 in series [1] is 398 nM. For the same molecule, the solubility kinetic at 1 h in series [2] amounted to 100 µM (≈ 33.3 µg/mL). This molecule also returned a PFI in series [3] of 6.64. This molecule also came in with an HSA % binding in series [4] of 75.73%.
On to `NS(=O)(=O)c1ccc(Nc2ncc(-c3ccccc3)o2)cc1` [NEU-0001219], for which, in series [1], the EC50 is 631 nM. The solubility kinetic at 1 h in series [2] was determined as 33 µM (≈ 10.4 µg/mL). This molecule also registered a PFI in series [3] of 6.27.
